# Experimental data: the supplement of paper PMC8728848
# The other results are listed elsewhere or left out.
# Columns and labels:
# Experiment in all cases: glycan array binding signal (z-score within array); higher = stronger binding
# Conditions in all cases: glycan notation: IUPAC condensed, linker removed
# GalNAc3S(b1-4)GlcNAc3S = target: GalNAc3S(b1-4)GlcNAc3S
# Procedure, shortened: (§1)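 The Consortium for Functional Glycomics database supplied 3228 glycan arrays, of which those lacking an available protein sequence were dropped. The binding signal, a within-array Z-score, was averaged across arrays of the same protein sequence and across linkers. Negative scores can be read as non-binding.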
# [1] = target: GalNAc3S(b1-4)[Fuc(a1-3)]GlcNAc
# Procedure, shortened: as §1
# GalNAc4S6S(b1-4)GlcNAc = target: GalNAc4S6S(b1-4)GlcNAc
# Procedure, shortened: as §1
# GalNAc6S(b1-4)GlcNAc = target: GalNAc6S(b1-4)GlcNAc
# Procedure, shortened: as §1
# Glc(a1-4)Glc = target: Glc(a1-4)Glc
# Procedure, shortened: as §1
# [2] = target: Glc(a1-4)Glc(a1-4)Glc(a1-4)Glc
# Procedure, shortened: as §1
# Glc(a1-6)Glc(a1-6)Glc = target: Glc(a1-6)Glc(a1-6)Glc
# Procedure, shortened: as §1
# [3] = target: Glc(a1-6)Glc(a1-6)Glc(a1-6)Glc
# Procedure, shortened: as §1
# Glc(b1-4)Glc = target: Glc(b1-4)Glc
# Procedure, shortened: as §1
# Glc(b1-6)Glc = target: Glc(b1-6)Glc
# Procedure, shortened: as §1
# GlcA(b1-3)Gal = target: GlcA(b1-3)Gal
# Procedure, shortened: as §1
# GlcA(b1-3)GlcNAc = target: GlcA(b1-3)GlcNAc
# Procedure, shortened: as §1
# GlcA(b1-6)Gal = target: GlcA(b1-6)Gal
# Procedure, shortened: as §1
# [4] = target: GlcA3S(b1-3)Gal(b1-4)GlcNAc(b1-2)Man
# Procedure, shortened: as §1
# [5] = target: GlcA3S(b1-3)Gal(b1-4)GlcNAc(b1-3)Gal(b1-4)Glc
# Procedure, shortened: as §1
# [6] = target: GlcNAc(a1-3)Gal(b1-4)GlcNAc
# Procedure, shortened: as §1
# [7] = target: GlcNAc(a1-4)Gal(b1-3)GlcNAc
# Procedure, shortened: as §1
# [8] = target: GlcNAc(a1-4)Gal(b1-4)GalNAc
# Procedure, shortened: as §1
# [9] = target: GlcNAc(a1-4)Gal(b1-4)GlcNAc
# Procedure, shortened: as §1
# [10] = target: GlcNAc(a1-4)Gal(b1-4)GlcNAc(b1-3)Gal(b1-4)Glc
# Procedure, shortened: as §1
# [11] = target: GlcNAc(a1-4)Gal(b1-4)GlcNAc(b1-3)Gal(b1-4)GlcNAc
# Procedure, shortened: as §1
# [12] = target: GlcNAc(a1-4)Gal(b1-4)GlcNAc(b1-3)Gal(b1-4)GlcNAc(b1-3)Gal(b1-4)GlcNAc
# Procedure, shortened: as §1
# [13] = target: GlcNAc(a1-4)Gal(b1-4)GlcNAc(b1-3)Gal(b1-4)[Fuc(a1-3)]GlcNAc(b1-3)Gal(b1-4)[Fuc(a1-3)]GlcNAc
# Procedure, shortened: as §1
# [14] = target: GlcNAc(a1-6)Gal(b1-4)GlcNAc
# Procedure, shortened: as §1
# [15] = target: GlcNAc(b1-2)Gal(b1-3)GalNAc
# Procedure, shortened: as §1
# [16] = target: GlcNAc(b1-2)Man(a1-3)[GlcNAc(b1-2)Man(a1-6)]Man(b1-4)GlcNAc(b1-4)GlcNAc
# Procedure, shortened: as §1
# [17] = target: GlcNAc(b1-2)Man(a1-3)[GlcNAc(b1-2)Man(a1-6)]Man(b1-4)GlcNAc(b1-4)[Fuc(a1-6)]GlcNAc
# Procedure, shortened: as §1
# [18] = target: GlcNAc(b1-2)Man(a1-3)[GlcNAc(b1-4)][GlcNAc(b1-2)Man(a1-6)]Man(b1-4)GlcNAc(b1-4)GlcNAc
# Procedure, shortened: as §1
# [19] = target: GlcNAc(b1-2)Man(a1-3)[GlcNAc(b1-4)][GlcNAc(b1-2)Man(a1-6)]Man(b1-4)GlcNAc(b1-4)[Fuc(a1-6)]GlcNAc
# Procedure, shortened: as §1
# [20] = target: GlcNAc(b1-2)[GlcNAc(b1-4)]Man(a1-3)[GlcNAc(b1-2)Man(a1-6)]Man(b1-4)GlcNAc(b1-4)GlcNAc
# Procedure, shortened: as §1
# [21] = target: GlcNAc(b1-2)[GlcNAc(b1-4)]Man(a1-3)[GlcNAc(b1-4)][GlcNAc(b1-2)Man(a1-6)]Man(b1-4)GlcNAc(b1-4)GlcNAc
# Procedure, shortened: as §1
# [22] = target: GlcNAc(b1-2)[GlcNAc(b1-4)]Man(a1-3)[GlcNAc(b1-4)][GlcNAc(b1-2)[GlcNAc(b1-6)]Man(a1-6)]Man(b1-4)GlcNAc(b1-4)GlcNAc
# Procedure, shortened: as §1
# [23] = target: GlcNAc(b1-2)[GlcNAc(b1-4)]Man(a1-3)[GlcNAc(b1-4)][GlcNAc(b1-2)[GlcNAc(b1-6)]Man(a1-6)]Man(b1-4)GlcNAc(b1-4)[Fuc(a1-6)]GlcNAc
# Procedure, shortened: as §1
# [24] = target: GlcNAc(b1-2)[GlcNAc(b1-6)]Man(a1-6)[GlcNAc(b1-2)Man(a1-3)]Man(b1-4)GlcNAc(b1-4)GlcNAc
# Procedure, shortened: as §1
# [25] = target: GlcNAc(b1-2)[GlcNAc(b1-6)]Man(a1-6)[GlcNAc(b1-2)Man(a1-3)]Man(b1-4)GlcNAc(b1-4)[Fuc(a1-6)]GlcNAc
# Procedure, shortened: as §1
# [26] = target: GlcNAc(b1-2)[GlcNAc(b1-6)]Man(a1-6)[GlcNAc(b1-4)][GlcNAc(b1-2)Man(a1-3)]Man(b1-4)GlcNAc(b1-4)GlcNAc
# Procedure, shortened: as §1
# GlcNAc(b1-3)Fuc = target: GlcNAc(b1-3)Fuc
# Procedure, shortened: as §1
# GlcNAc(b1-3)Gal = target: GlcNAc(b1-3)Gal
# Procedure, shortened: as §1
binder,measurement,setting,value
DC-ASGPR S+GEE (Homo sapiens) (protein) MTRTYENFQYLENKVKVQGFKNGPLPLQSLLQRLRSGPCHLLLSLGLGLLLLVIICVVGFQNSKFQRDLVTLRTDFSNFTSNTVAEIQALTSQGSSLEETIASLKAEVEGFKQERQAVHSEMLLRVQQLVQDLKKLTCQVATINNNGEEASTEGTCCPVNWVEHQDSCYWFSHSGMSWAEAEKYCQLKNAHLVVINSREEQNFVQKYLGSAYTWMGLSDPEGAWKWVDGTDYATGFQNWKPGQPDDWQGHGLGGGEDCAHFHPDGRWNDDVCQRPYHWVCEAGLGQTSQESH,glycan array binding signal (z-score),GalNAc3S(b1-4)GlcNAc3S,-0.283
same,glycan array binding signal (z-score),[1],-0.27
same,glycan array binding signal (z-score),GalNAc4S6S(b1-4)GlcNAc,-0.288
same,glycan array binding signal (z-score),GalNAc6S(b1-4)GlcNAc,2.73
same,glycan array binding signal (z-score),Glc(a1-4)Glc,-0.342
same,glycan array binding signal (z-score),[2],-0.35
same,glycan array binding signal (z-score),Glc(a1-6)Glc(a1-6)Glc,0.193
same,glycan array binding signal (z-score),[3],0.001
same,glycan array binding signal (z-score),Glc(b1-4)Glc,-0.376
same,glycan array binding signal (z-score),Glc(b1-6)Glc,-0.268
same,glycan array binding signal (z-score),GlcA(b1-3)Gal,-0.236
same,glycan array binding signal (z-score),GlcA(b1-3)GlcNAc,-0.36
same,glycan array binding signal (z-score),GlcA(b1-6)Gal,-0.429
same,glycan array binding signal (z-score),[4],-0.4
same,glycan array binding signal (z-score),[5],-0.302
same,glycan array binding signal (z-score),[6],-0.318
same,glycan array binding signal (z-score),[7],-0.328
same,glycan array binding signal (z-score),[8],-0.318
same,glycan array binding signal (z-score),[9],-0.318
same,glycan array binding signal (z-score),[10],-0.278
same,glycan array binding signal (z-score),[11],-0.296
same,glycan array binding signal (z-score),[12],-0.289
same,glycan array binding signal (z-score),[13],-0.313
same,glycan array binding signal (z-score),[14],-0.341
same,glycan array binding signal (z-score),[15],-0.31
same,glycan array binding signal (z-score),[16],-0.285
same,glycan array binding signal (z-score),[17],-0.306
same,glycan array binding signal (z-score),[18],-0.118
same,glycan array binding signal (z-score),[19],-0.282
same,glycan array binding signal (z-score),[20],-0.463
same,glycan array binding signal (z-score),[21],-0.304
same,glycan array binding signal (z-score),[22],-0.324
same,glycan array binding signal (z-score),[23],-0.308
same,glycan array binding signal (z-score),[24],0.042
same,glycan array binding signal (z-score),[25],-0.082
same,glycan array binding signal (z-score),[26],-0.317
same,glycan array binding signal (z-score),GlcNAc(b1-3)Fuc,-0.328
same,glycan array binding signal (z-score),GlcNAc(b1-3)Gal,-0.293
